Inconclusive results and toxic doses are left out.
Test system: L1210 leukemia ip in BDF1 mice, survival T/C
Assay: NCI In Vivo Anticancer Drug Screen. Data for tumor model L1210 Leukemia (intraperitoneal) in B6D2F1 (BDF1) mice
Details: endpoint: mean survival time, higher = longer survival
In short: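 Ratio derived from survival: compound-dosed mice over vehicle-dosed mice, all bearing a transplantable tumor.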

COc1cc2c(c(OC)c1OC)-c1ccc(OC)c(=O)cc1[C@@H](N)CC2
T/C (dose: 0.25 mg/kg/injection, schedule: Q12HX024 (ip), vehicle: water): 104 % of control
T/C (dose: 0.5 mg/kg/injection, schedule: Q01DX001 (ip), vehicle: saline): 100 % of control
T/C (dose: 0.5 mg/kg/injection, schedule: Q12HX016 (ip), vehicle: water): 119 % of control
T/C (dose: 0.5 mg/kg/injection, schedule: Q12HX024 (ip), vehicle: water): 117 % of control
T/C (dose: 1.0 mg/kg/injection, schedule: Q01DX001 (ip), vehicle: saline): 102 % of control
T/C (dose: 1.0 mg/kg/injection, schedule: Q01DX009 (ip), vehicle: water): 117 % of control
T/C (dose: 1.0 mg/kg/injection, schedule: Q12HX008 (ip), vehicle: water): 110 % of control
T/C (dose: 1.0 mg/kg/injection, schedule: Q12HX016 (ip), vehicle: water): 100 % of control
T/C (dose: 1.0 mg/kg/injection, schedule: Q12HX024 (ip), vehicle: water): 95 % of control
T/C (dose: 1.5 mg/kg/injection, schedule: Q01DX015 (ip), vehicle: clinical formulation): 109 % of control
T/C (dose: 1.5 mg/kg/injection, schedule: Q01DX015 (ip), vehicle: saline): 124 % of control
T/C (dose: 2.0 mg/kg/injection, schedule: Q01DX001 (ip), vehicle: saline): 102 % of control
T/C (dose: 2.0 mg/kg/injection, schedule: Q01DX009 (ip), vehicle: water): 110 % of control
T/C (dose: 2.0 mg/kg/injection, schedule: Q04DX003 (ip), vehicle: water): 111 % of control
T/C (dose: 2.0 mg/kg/injection, schedule: Q12HX016 (ip), vehicle: water): 91 % of control
T/C (dose: 4.0 mg/kg/injection, schedule: Q01DX001 (ip), vehicle: saline): 98 % of control
T/C (dose: 4.0 mg/kg/injection, schedule: Q01DX009 (ip), vehicle: water): 102 % of control
T/C (dose: 4.0 mg/kg/injection, schedule: Q04DX002 (ip), vehicle: water): 102 % of control
T/C (dose: 4.0 mg/kg/injection, schedule: Q04DX003 (ip), vehicle: water): 104 % of control
T/C (dose: 8.0 mg/kg/injection, schedule: Q01DX001 (ip), vehicle: saline): 102 % of control
T/C (dose: 8.0 mg/kg/injection, schedule: Q01DX001 (ip), vehicle: water): 111 % of control
T/C (dose: 8.0 mg/kg/injection, schedule: Q04DX002 (ip), vehicle: water): 100 % of control
T/C (dose: 8.0 mg/kg/injection, schedule: Q04DX003 (ip), vehicle: water): 113 % of control
T/C (dose: 9.0 mg/kg/injection, schedule: Q01DX015 (ip), vehicle: clinical formulation): 114 % of control
T/C (dose: 9.0 mg/kg/injection, schedule: Q01DX015 (ip), vehicle: saline): 168 % of control
T/C (dose: 16.0 mg/kg/injection, schedule: Q01DX001 (ip), vehicle: water): 111 % of control
T/C (dose: 16.0 mg/kg/injection, schedule: Q04DX002 (ip), vehicle: water): 100 % of control
T/C (dose: 32.0 mg/kg/injection, schedule: Q01DX001 (ip), vehicle: water): 113 % of control
T/C (dose: 32.0 mg/kg/injection, schedule: Q04DX002 (ip), vehicle: water): 105 % of control
T/C (dose: 128.0 mg/kg/injection, schedule: Q01DX001 (ip), vehicle: water): 114 % of control

From PubChem BioAssay AID248 (DTP/NCI, 2004)
